In the supplement of paper PMC12217912:
This is one part of the list. Sequences were assembled here from the parent chain. Values near 0.05 are background.

B1: TEV protease; numbered along this chain (parent)
chain: MGESLFKGPRDYNPISSSICHLTNESDGHTTSLYGIGFGPFIITNKHLFRRNNGTLVVQSLHGVFKVKDTTTLQQHLVDGRDMIIIRMPKDFPPFPQKLKFREPQREERICLVTTNFQTKSMSSMVSDTSCTFPSGDGIFWKHWIQTKDGQCGSPLVSTRDGFIVGIHSASNFTNTNNYFTSVPKNFMELLTNQEAQQWVSGWRLNADSVLWGGHKVFMVKPEEPFQPVKEATQL

Variants of: B1
Assay: raw area under fraction-flipped curve 0-4 h after induction (AUC4h, not background-subtracted), DNA-recorder readout of cleavage of the substrate (dimensionless); higher = more cleavage of the substrate by the protease variant
Conditions: temperature: 34 °C; time window: 0-4 h after rhamnose induction
Description: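 In vivo DNA recorder in E. coli TOP10(DE3) ΔrhaA at 34 °C. Each TEVp single-site mutant (parent TEVp 0) is paired with a single-site variant of the 7-mer TEVs (canonical ENLYFQ|S). The substrate sits between flexible linkers in a Bxb1-sfGFP-TEVs-SsrA fusion, so cleavage stabilises Bxb1 and speeds flipping of a recombination array, read by NGS. The value is the raw area under the fraction-flipped curve over 0-4 h after rhamnose induction (AUC4h), with ≥20 reads per time point. It is not background-subtracted; inactive controls average about 0.047.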
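Note: Bxb1 expression induced with 0.2% (w/v) L-rhamnose at OD600 near 0.5, cultures sampled hourly, flipped fraction per protease–substrate barcode pair counted by paired-end Illumina sequencing.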

Row | Variant | area with substrate ANLYFQS | area with substrate CNLYFQS | area with substrate DNLYFQS | area with substrate GNLYFQS | area with substrate HNLYFQS | area with substrate INLYFQS | area with substrate KNLYFQS | area with substrate LNLYFQS | area with substrate MNLYFQS | area with substrate NNLYFQS | area with substrate PNLYFQS | area with substrate QNLYFQS | area with substrate RNLYFQS | area with substrate SNLYFQS | area with substrate TNLYFQS | area with substrate VNLYFQS | area with substrate WNLYFQS | area with substrate YNLYFQS | area with substrate FNLYFQS
1 | MGESLFKGPRDYNPISSSICHLTNESDGHTTSLYGIGFGPFIITNKHLFRRNNGTLVVQSLHGVFKVKDTTTLQQHLVDGRDMIIIRMPKDFPPFPQKLKFREPQREERICLVTTNFQTKSMSSMVSDTSCTFPSGDGICWKHWIQTKDGQCGSPLVSTRDGFIVGIHSASNFTNTNNYFTSVPKNFMELLTNQEAQQWVSGWRLNADSVLWGGHKVFMVKPEEPFQPVKEATQL [F140C] | 0.0619 | 0.0689 | 0.0711 | 0.0436 | 0.0589 | 0.0625 | 0.0576 | 0.0666 | 0.0642 | 0.0543 | 0.0591 | 0.0445 | 0.0583 | 0.072 | 0.0541 | 0.0638 | 0.0597 | 0.0639 | –
2 | MGESLFKGPRDYNPISSSICHLTNESDGHTTSLYGIGFGPFIITNKHLFRRNNGTLVVQSLHGVFKVKDTTTLQQHLVDGRDMIIIRMPKDFPPFPQKLKFREPQREERICLVTTNFQTKSMSSMVSDTSCTFPSGLGIFWKHWIQTKDGQCGSPLVSTRDGFIVGIHSASNFTNTNNYFTSVPKNFMELLTNQEAQQWVSGWRLNADSVLWGGHKVFMVKPEEPFQPVKEATQL [D137L] | 0.0809 | 0.0681 | 0.0719 | – | 0.0644 | 0.0674 | 0.0733 | – | 0.0743 | 0.0613 | 0.0716 | – | 0.064 | – | – | 0.0458 | 0.0593 | 0.0468 | –
3 | MGESLFKGPRDYNPISSSICHLTNESDGHTTSLYGIGFGPFIITNKHLFRRNNGTLVVQSLHGVFKVKDTTTLQQHLVDGRDMIIIRMPKDFPPFPQKLKFREPQREERICLVTTNFQTKSMSSMVSDTSCTFPSGNGIFWKHWIQTKDGQCGSPLVSTRDGFIVGIHSASNFTNTNNYFTSVPKNFMELLTNQEAQQWVSGWRLNADSVLWGGHKVFMVKPEEPFQPVKEATQL [D137N] | 0.076 | 0.0586 | 0.0822 | 0.0589 | 0.0617 | 0.0543 | 0.0703 | 0.0615 | 0.0659 | 0.077 | 0.0653 | 0.0792 | – | 0.0647 | 0.0675 | – | 0.0603 | 0.0643 | 0.049
4 | MGESLFKGPRDYNPISSSICHLTNESDGHTTSLYGIGFGPFIITNKHLFRRNNGTLVVQSLHGVFKVKDTTTLQQHLVDGRDMIIIRMPKDFPPFPQKLKFREPQREERICLVTTNFQTKSMSSMVSDTSCTFPSGRGIFWKHWIQTKDGQCGSPLVSTRDGFIVGIHSASNFTNTNNYFTSVPKNFMELLTNQEAQQWVSGWRLNADSVLWGGHKVFMVKPEEPFQPVKEATQL [D137R] | 0.0774 | 0.0445 | 0.0892 | 0.0553 | 0.0461 | – | 0.0784 | – | 0.0636 | – | – | – | 0.0623 | – | 0.123 | 0.066 | 0.0608 | 0.0674 | 0.0588
5 | MGESLFKGPRDYNPISSSICHLTNESDGHTTSLYGIGFGPFIITNKHLFRRNNGTLVVQSLHGVFKVKDTTTLQQHLVDGRDMIIIRMPKDFPPFPQKLKFREPQREERICLVTTNFQTKSMSSMVSDQSCTFPSGDGIFWKHWIQTKDGQCGSPLVSTRDGFIVGIHSASNFTNTNNYFTSVPKNFMELLTNQEAQQWVSGWRLNADSVLWGGHKVFMVKPEEPFQPVKEATQL [T129Q] | 0.0785 | 0.0926 | 0.0626 | – | 0.0468 | 0.0611 | 0.0562 | 0.0575 | – | 0.003 | – | – | – | 0.0639 | 0.0576 | 0.071 | – | 0.0691 | –
6 | MGESLFKGPRDYNPISSSICHLTNESDGHTTSLYGIGFGPFIITNKHLFRRNNGTLVVQSLHGVFKVKDTTTLQQHLVDGRDMIIIRMPKDFPPFPQKLKFREPQREERICLVTTNFQTKSMSSMVSDWSCTFPSGDGIFWKHWIQTKDGQCGSPLVSTRDGFIVGIHSASNFTNTNNYFTSVPKNFMELLTNQEAQQWVSGWRLNADSVLWGGHKVFMVKPEEPFQPVKEATQL [T129W] | 0.0442 | 0.0674 | 0.0798 | 0.0599 | 0.0644 | – | – | 0.062 | 0.0505 | 0.0811 | 0.0718 | 0.0815 | 0.0594 | 0.0606 | 0.0608 | 0.0688 | 0.0645 | 0.0596 | 0.0519
7 | MGESLFKGPRDYNPISSSICHLTNESDGHTTSLYGIGFGPFIITNKHLFRRNNGTLVVQSLHGVFKVKDTTTLQQHLVDGRDMIIIRMPKDFPPFPQKLKFREPQREERICLVTTNFQTKSMSSMVSDISCTFPSGDGIFWKHWIQTKDGQCGSPLVSTRDGFIVGIHSASNFTNTNNYFTSVPKNFMELLTNQEAQQWVSGWRLNADSVLWGGHKVFMVKPEEPFQPVKEATQL [T129I] | 0.0621 | 0.0645 | 0.0748 | 0.0825 | 0.0522 | – | 0.0565 | 0.0566 | 0.0601 | – | 0.0901 | – | 0.0591 | – | – | – | – | – | 0.0472
8 | MGESLFKGPRDYNPISSSICHLTNESDGHTTSLYGIGFGPFIITNKHLFRRNNGTLVVQSLHGVFKVKDTTTLQQHLVDGRDMIIIRMPKDFPPFPQKLKFREPQREERICLVTTNFQTKSMSSMWSDTSCTFPSGDGIFWKHWIQTKDGQCGSPLVSTRDGFIVGIHSASNFTNTNNYFTSVPKNFMELLTNQEAQQWVSGWRLNADSVLWGGHKVFMVKPEEPFQPVKEATQL [V126W] | 0.0704 | 0.0649 | 0.0826 | 0.0728 | 0.0713 | 0.0664 | 0.0665 | 0.0671 | 0.0675 | 0.0651 | 0.0746 | 0.0951 | 0.0766 | – | 0.0713 | 0.0573 | 0.0608 | 0.0638 | 0.0705
9 | MGESLFKGPRDYNPISSSICHLTNESDGHTTSLYGIGFGPFIITNKHLFRRNNGTLVVQSLHGVFKVKDTTTLQQHLVDGRDMIIIRMPKDFPPFPQKLKFREPQREERICLVTTNFQTKSMSSMNSDTSCTFPSGDGIFWKHWIQTKDGQCGSPLVSTRDGFIVGIHSASNFTNTNNYFTSVPKNFMELLTNQEAQQWVSGWRLNADSVLWGGHKVFMVKPEEPFQPVKEATQL [V126N] | 0.0488 | 0.0595 | 0.0867 | 0.0684 | 0.0542 | 0.0626 | 0.076 | 0.0594 | – | – | 0.0909 | – | – | 0.0809 | 0.0735 | – | 0.0479 | 0.0542 | –
